{"source": "PubChem BioAssay AID588342", "about": "(National Center for Advancing Translational Sciences (NCATS), 2011)", "note": "“And” between values parts separate entries of the source, which are not always exact repeats. Equal values may be shown once. Out of some 360,000 compounds screened, about 25,000 (6.9%) were called active. The shares of active, inactive and inconclusive entries below differ from those in the screen. Calls follow the shape of the dose curve; as a rule, active = well fitted inhibition curve with a large enough effect; inconclusive = small, poorly fitted or top-dose-only effect; inactive = flat fitted curve, though single readings scatter. Potencies of inconclusive entries are doubtful fits and often do not repeat. Potency is read from the fitted curve at half-maximal effect; tags tell the direction and shape of the fitted curve.", "data": [{"target": "Luciferin 4-monooxygenase (Photinus pyralis) (UniProt P08659)", "sequence (P08659 whole entry, looked up)": "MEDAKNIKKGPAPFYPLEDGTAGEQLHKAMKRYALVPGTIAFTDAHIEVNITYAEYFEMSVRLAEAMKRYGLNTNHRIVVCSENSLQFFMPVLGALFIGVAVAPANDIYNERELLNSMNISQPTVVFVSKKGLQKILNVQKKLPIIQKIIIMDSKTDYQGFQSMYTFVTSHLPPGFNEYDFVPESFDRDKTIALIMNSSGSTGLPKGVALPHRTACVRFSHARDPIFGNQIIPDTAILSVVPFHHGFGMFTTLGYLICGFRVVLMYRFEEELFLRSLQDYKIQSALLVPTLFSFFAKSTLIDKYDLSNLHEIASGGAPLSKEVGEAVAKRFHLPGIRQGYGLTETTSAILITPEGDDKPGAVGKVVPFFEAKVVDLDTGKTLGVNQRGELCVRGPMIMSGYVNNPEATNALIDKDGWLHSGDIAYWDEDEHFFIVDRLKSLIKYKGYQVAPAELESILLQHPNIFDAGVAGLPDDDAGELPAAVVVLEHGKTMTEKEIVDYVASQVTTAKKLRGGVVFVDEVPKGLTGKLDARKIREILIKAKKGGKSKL", "assay": "qHTS profiling assay for firefly luciferase inhibitor/activator using purifed enzyme and Km concentrations of substrates (counterscreen for miR-21 project); also: nearly all actives have a fitted effect of over 55% in size;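 as to activity change, negative = inhibition: plate controls were vehicle for no effect and reference inhibitor for full effect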", "conditions": "purified FLuc, luminescence inhibition; activity change, negative = inhibition: at 57.5 µM (top of the series)", "method_in_brief": "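Purified P. pyralis luciferase (10nM final) with 10uM D-luciferin and 10uM ATP (Km levels) in 50mM Tris acetate pH 7.5, 10mM Mg acetate, 0.01% Tween-20, 0.05% BSA; qHTS 6-point titration, ~60 µM downward; luminescence read.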", "values": [{"compound": "Cc1ccc(-n2c(-c3ccccc3)c[n+]3c2CCc2ccccc2-3)c(C)c1", "activity change, negative = inhibition": "inactive: -1.56%"}, {"compound": "CCOc1cc(/C=C2/C(=O)N(c3ccccc3)N=C2C)ccc1OC(=O)c1ccco1", "Potency": "inconclusive: 16.9 µM [inhibitor, partial curve]"}, {"compound": "O=C(COc1ccc(C(=O)c2ccccc2)cc1)Nc1cccnc1", "Potency": "inconclusive: 37.9 µM [inhibitor, partial curve, poor fit]"}, {"compound": "N#C/C(=C\\c1ccc(-c2ccc(C(=O)O)cc2)o1)c1nc2ccccc2[nH]1", "Potency": "active: 9.53 µM"}, {"compound": "O=C(Nc1nc2ccccc2s1)C1CCN(S(=O)(=O)c2cc([N+](=O)[O-])ccc2Cl)CC1", "activity change, negative = inhibition": "inactive: -5.8%"}, {"compound": "CCCCn1c(N)c(N(CC(C)C)C(=O)C2CCN(S(=O)(=O)c3ccc(C)cc3)CC2)c(=O)[nH]c1=O", "activity change, negative = inhibition": "inactive: 5.77%"}, {"compound": "CCNC(=O)NC(=O)CSc1ccc(S(=O)(=O)N2CCCCC2)cn1", "activity change, negative = inhibition": "inactive: 6.24%"}, {"compound": "CSc1ccc(/C=N/N2CCN(Cc3ccccc3)CC2)cc1", "Potency": "inconclusive: 26.9 µM [inhibitor, single point]"}, {"compound": "Clc1ccc(OCCCNCc2ccccc2)c(Br)c1", "Potency": "inconclusive: 30.1 µM [inhibitor, partial curve, poor fit]"}, {"compound": "Cc1ccccc1N=CC=C1OC(C)(C)C(C)(C)O1", "Potency": "inconclusive: 19 µM [inhibitor, partial curve, poor fit]"}, {"compound": "CN(CC(=O)Nc1ccccc1Cl)C(=O)COC(=O)C1CC1", "activity change, negative = inhibition": "inactive: -0.42%"}, {"compound": "CSc1nc2c(cnn2-c2ccccc2)c(=O)n1N", "Potency": "inconclusive: 33.8 µM [inhibitor, single point]"}, {"compound": "Cc1cccc(/C(N)=N/OC(=O)c2ccc(Br)o2)c1", "Potency": "active: 4.26 µM"}, {"compound": "COc1ccc(-c2nc(NC3=NCCCCC3)sc2C)cc1", "Potency": "inconclusive: 37.9 µM [inhibitor, single point]"}, {"compound": "Cc1ccc(CSc2nc3c(c(=O)[nH]2)C(c2cccc(F)c2F)CC(=O)N3)cc1", "note": "(configuration not stated)", "activity change, negative = inhibition": "inactive: -4.69%"}, {"compound": "CCOC(=O)c1cc(-c2ccc(OC)cc2)nn1Cc1ccccc1", "Potency": "active: 7.57 µM"}, {"compound": "CCN(CC)c1ccc2c(c1)C(=O)N(C)C2=O", "Potency": "inconclusive: 23.9 µM [inhibitor, single point]"}, {"compound": "CC(C(=O)NCc1ccccn1)c1ccc([N+](=O)[O-])cc1", "note": "(configuration not stated)", "activity change, negative = inhibition": "inactive: -0.0499%"}, {"compound": "CCCc1nn2c(=O)cc(CSCC(=O)Nc3ccc(C)cc3)nc2s1", "activity change, negative = inhibition": "inactive: 3.53%"}, {"compound": "Cn1ccc(C(=O)Nc2ccc3c(c2)OCCO3)n1", "Potency": "inconclusive: 2.39 µM [inhibitor, partial curve]"}, {"compound": "COc1ccc2[nH]c(C(=O)N3CCNCC3)cc2c1OC", "activity change, negative = inhibition": "inactive: 3.08%"}, {"compound": "Cc1cc(C)c2[nH]c(O)c(N=Nc3ccc(C(=O)O)cc3)c2c1", "Potency": "inconclusive: 26.9 µM [inhibitor, single point]"}, {"compound": "Cc1cccc(CC2CC(=O)N(c3nc4ccccc4s3)C2=O)c1", "note": "(configuration not stated)", "Potency": "inconclusive: 21.3 µM [inhibitor, partial curve, poor fit]"}, {"compound": "COc1ccc(NC(=O)c2c(NC(=O)c3cccc(C)c3)sc3c2CCCC3)cc1", "Potency": "inconclusive: 6.01 µM [inhibitor, partial curve, poor fit]"}, {"compound": "COC(=O)C1=C(C)Nc2[nH]c(=S)[nH]c(=O)c2C1c1ccc(OC)cc1", "note": "(configuration not stated)", "Potency": "inconclusive: 23.9 µM [inhibitor, partial curve, poor fit]"}, {"compound": "N#C/C(=C\\c1ccc(-c2ccccc2Cl)o1)C(=O)Nc1nc2ccccc2s1", "Potency": "inconclusive: 37.9 µM [inhibitor, partial curve, poor fit]"}, {"compound": "O=C(Cn1nnc(-c2cccs2)n1)OC1CCCCC1", "Potency": "active: 13.5 µM"}, {"compound": "COc1ccc(C(=O)NC(C)c2ccc(-n3ccnc3)cc2)cc1S(=O)(=O)N1CCOCC1", "note": "(configuration not stated)", "activity change, negative = inhibition": "inactive: 2.62%"}, {"compound": "COc1ccc(-c2nc(Cn3c(SCc4ccc(F)cc4)nc4cccnc43)c(C)o2)cc1", "Potency": "active: 10.7 µM"}, {"compound": "CC(=O)c1cccc(NC(=O)c2ccc3nc(C(C)C)oc3c2)c1", "Potency": "inconclusive: 16.9 µM [inhibitor, partial curve, poor fit]"}, {"compound": "COc1ccc(C(=O)C2CCCN(C(=O)c3cc(C4CC4)[nH]n3)C2)c(C)c1", "note": "(configuration not stated)", "activity change, negative = inhibition": "inactive: -1.32%"}, {"compound": "O=C(O)c1ccc2nc(-c3ccco3)c(-c3ccco3)nc2c1", "Potency": "inconclusive: 21.3 µM [inhibitor, partial curve]"}, {"compound": "O=C(/C=C/c1ccccc1F)c1ccoc1", "Potency": "active: 12 µM"}, {"compound": "Cc1noc(C)c1C(=O)OCC(=O)c1ccc[nH]1", "activity change, negative = inhibition": "inactive: 2.38%"}, {"compound": "CCCCNc1c(-c2ccc(-c3cccc(Cl)c3)cc2)nc2ccccn12", "Potency": "active: 10.7 µM"}, {"compound": "Cc1nc2ccccn2c1C(=O)Nc1ccc(Cl)cc1", "Potency": "active: 23.9 µM"}, {"compound": "CC(=O)c1sc(NC(=O)COc2ccc(Cl)cc2Cl)nc1C", "Potency": "inconclusive: 1.69 µM [inhibitor, partial curve, poor fit]"}, {"compound": "O=C(CN1C(=O)c2ccccc2S1(=O)=O)NC1CCCCCC1", "Potency": "inconclusive: 26.9 µM [inhibitor, partial curve, poor fit]"}, {"compound": "O=C(NC12CC3CC(CC(C3)C1)C2)c1ccc(-c2ccc(Cl)cc2)o1", "Potency": "inconclusive: 5.36 µM [inhibitor, partial curve, poor fit]"}, {"compound": "Clc1ccccc1OCc1nnc(-c2ccccc2)o1", "Potency": "active: 10.7 µM"}, {"compound": "C/C(=N\\NC(=O)C1CC1)c1ccccc1O", "Potency": "inconclusive: 37.9 µM [inhibitor, partial curve, poor fit]"}, {"compound": "Cc1ccc2onc(CC(=O)N3CCN(c4cccc(C)c4C)CC3)c2c1", "Potency": "inconclusive: 23.9 µM [inhibitor, partial curve, poor fit]"}, {"compound": "CCOc1ccc(NC(=O)Cn2c(CCC(=O)O)ccc2-c2ccc(C)cc2)cc1", "activity change, negative = inhibition": "inactive: -19.5%"}, {"compound": "O=[N+]([O-])c1ccc(O)c(/C=N/Nc2ccccc2[N+](=O)[O-])c1", "Potency": "inconclusive: 5.36 µM [inhibitor, partial curve, poor fit]"}, {"compound": "CC(C)CCNC(=O)C(=O)NC1CCCC1", "Potency": "inconclusive: 37.9 µM [inhibitor, single point]"}, {"compound": "CC(=O)C1=C(C)OC(N)=C(C#N)C1c1cc2cc(C)c(C)cc2nc1Cl", "note": "(configuration not stated)", "Potency": "inconclusive: 30.1 µM [inhibitor, partial curve, poor fit]"}, {"compound": "Cc1ccccc1NC(=O)Nc1cccs1", "Potency": "inconclusive: 37.9 µM [inhibitor, partial curve, poor fit] and inconclusive: 21.3 µM [inhibitor, partial curve, poor fit]"}]}]}
